Assay results published in article PMC3063775.
Where a chain is given by its changes, count along the chain named. Where two headings read alike, the source gives them in different places. No constants are given. Whether binding was seen depends on the method and setting. Binding seen in cells or lysates may run through a third protein. Some binding calls cover weakened binding; strength is not graded here. For some of these results: Where a sequence is shown, tags or fusion partners need not be part of it. Values belong to the molecule of their own block, whether it stands above or below them.

Chains of the proteins cited; added tags and fusions are not shown.
UniProt Q14457: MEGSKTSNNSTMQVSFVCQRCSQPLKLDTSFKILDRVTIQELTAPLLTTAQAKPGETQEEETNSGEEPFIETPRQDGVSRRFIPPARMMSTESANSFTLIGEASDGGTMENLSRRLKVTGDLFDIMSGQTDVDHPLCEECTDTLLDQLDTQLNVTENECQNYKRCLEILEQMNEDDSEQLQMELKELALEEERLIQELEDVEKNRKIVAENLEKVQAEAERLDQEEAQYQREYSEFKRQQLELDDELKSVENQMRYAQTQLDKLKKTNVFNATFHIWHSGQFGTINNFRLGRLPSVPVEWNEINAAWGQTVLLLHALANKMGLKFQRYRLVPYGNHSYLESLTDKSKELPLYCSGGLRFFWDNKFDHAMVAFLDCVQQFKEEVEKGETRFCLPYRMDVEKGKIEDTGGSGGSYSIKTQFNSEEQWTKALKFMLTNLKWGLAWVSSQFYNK
UniProt Q9EQW7: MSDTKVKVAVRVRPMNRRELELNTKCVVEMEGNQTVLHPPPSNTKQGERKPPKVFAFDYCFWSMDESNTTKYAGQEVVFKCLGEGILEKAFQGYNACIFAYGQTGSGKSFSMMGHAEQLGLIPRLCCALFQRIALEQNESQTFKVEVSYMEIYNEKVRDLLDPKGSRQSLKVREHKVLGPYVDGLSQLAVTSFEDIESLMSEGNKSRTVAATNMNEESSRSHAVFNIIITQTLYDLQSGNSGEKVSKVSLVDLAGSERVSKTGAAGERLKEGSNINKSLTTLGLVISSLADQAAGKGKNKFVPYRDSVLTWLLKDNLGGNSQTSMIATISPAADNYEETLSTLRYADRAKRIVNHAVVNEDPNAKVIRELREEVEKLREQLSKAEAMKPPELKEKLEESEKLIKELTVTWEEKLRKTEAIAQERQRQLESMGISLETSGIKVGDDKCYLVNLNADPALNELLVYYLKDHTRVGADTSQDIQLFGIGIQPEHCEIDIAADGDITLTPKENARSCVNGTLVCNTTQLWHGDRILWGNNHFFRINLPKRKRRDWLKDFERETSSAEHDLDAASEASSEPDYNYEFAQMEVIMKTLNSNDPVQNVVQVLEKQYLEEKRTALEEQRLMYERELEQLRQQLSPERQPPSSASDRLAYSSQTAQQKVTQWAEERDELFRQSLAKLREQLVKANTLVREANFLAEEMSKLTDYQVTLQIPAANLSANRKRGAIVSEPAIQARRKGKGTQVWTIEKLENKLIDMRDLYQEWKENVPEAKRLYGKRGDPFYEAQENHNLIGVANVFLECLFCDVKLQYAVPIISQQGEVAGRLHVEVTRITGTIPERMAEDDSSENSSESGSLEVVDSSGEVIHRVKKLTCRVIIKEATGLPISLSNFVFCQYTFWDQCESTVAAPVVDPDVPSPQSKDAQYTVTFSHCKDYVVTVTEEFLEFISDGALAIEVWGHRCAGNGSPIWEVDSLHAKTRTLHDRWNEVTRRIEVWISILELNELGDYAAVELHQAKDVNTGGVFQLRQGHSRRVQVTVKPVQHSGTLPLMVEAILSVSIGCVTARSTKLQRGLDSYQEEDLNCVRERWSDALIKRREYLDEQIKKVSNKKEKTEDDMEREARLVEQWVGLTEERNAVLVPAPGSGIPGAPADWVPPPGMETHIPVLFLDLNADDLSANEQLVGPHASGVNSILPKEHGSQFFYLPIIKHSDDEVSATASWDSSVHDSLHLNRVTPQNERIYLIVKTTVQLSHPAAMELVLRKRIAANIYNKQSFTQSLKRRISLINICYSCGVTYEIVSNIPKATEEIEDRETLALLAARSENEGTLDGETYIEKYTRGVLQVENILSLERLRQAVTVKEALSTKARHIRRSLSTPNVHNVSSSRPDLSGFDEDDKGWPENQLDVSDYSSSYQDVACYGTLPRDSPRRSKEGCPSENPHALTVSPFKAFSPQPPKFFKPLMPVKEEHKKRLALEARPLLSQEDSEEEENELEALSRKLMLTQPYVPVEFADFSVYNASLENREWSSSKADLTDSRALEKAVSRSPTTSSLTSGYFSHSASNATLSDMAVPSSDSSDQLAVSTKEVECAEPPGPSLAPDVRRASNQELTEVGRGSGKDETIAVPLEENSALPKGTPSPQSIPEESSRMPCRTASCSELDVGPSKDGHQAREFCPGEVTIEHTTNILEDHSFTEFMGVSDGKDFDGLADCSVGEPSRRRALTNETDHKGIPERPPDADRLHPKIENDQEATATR

Columns and labels:
[1] = target: endogenous FYVE-CENT (wild type) (human (endogenous in HeLa and HCC-1395)) (UniProt Q68DK2); test: co-IP; HeLa cell lysate; rabbit antibody against FYVE-CENT on Protein A beads, 1 h at 4°C; blot with anti-Beclin 1 and anti-FYVE-CENT
[2] = target: endogenous FYVE-CENT R1945Q mutant protein from HCC-1954 breast cancer cells (human (endogenous in HCC-1954)) (UniProt Q68DK2); test: co-IP; HCC-1395 (control) and HCC-1954 (FYVE-CENT R1945Q) cell lysates; rabbit antibody against FYVE-CENT on Protein A beads, 1 h at 4°C; blot with anti-Beclin 1 and anti-FYVE-CENT
[3] = target: endogenous FYVE-CENT (wild type) (human (endogenous in HeLa and HCC-1395)) (UniProt Q68DK2); test: as above
[4] = target: T1, GST-FYVE-CENT C-terminus (1807-2539) mutant R1945Q (human) (UniProt Q68DK2); test: pull-down; recombinant GST fusion proteins immobilized on glutathione-Sepharose beads, incubated with lysates of HeLa cells transiently over-expressing the myc-tagged protein; immunoblot; only the target purified
T1 sequence: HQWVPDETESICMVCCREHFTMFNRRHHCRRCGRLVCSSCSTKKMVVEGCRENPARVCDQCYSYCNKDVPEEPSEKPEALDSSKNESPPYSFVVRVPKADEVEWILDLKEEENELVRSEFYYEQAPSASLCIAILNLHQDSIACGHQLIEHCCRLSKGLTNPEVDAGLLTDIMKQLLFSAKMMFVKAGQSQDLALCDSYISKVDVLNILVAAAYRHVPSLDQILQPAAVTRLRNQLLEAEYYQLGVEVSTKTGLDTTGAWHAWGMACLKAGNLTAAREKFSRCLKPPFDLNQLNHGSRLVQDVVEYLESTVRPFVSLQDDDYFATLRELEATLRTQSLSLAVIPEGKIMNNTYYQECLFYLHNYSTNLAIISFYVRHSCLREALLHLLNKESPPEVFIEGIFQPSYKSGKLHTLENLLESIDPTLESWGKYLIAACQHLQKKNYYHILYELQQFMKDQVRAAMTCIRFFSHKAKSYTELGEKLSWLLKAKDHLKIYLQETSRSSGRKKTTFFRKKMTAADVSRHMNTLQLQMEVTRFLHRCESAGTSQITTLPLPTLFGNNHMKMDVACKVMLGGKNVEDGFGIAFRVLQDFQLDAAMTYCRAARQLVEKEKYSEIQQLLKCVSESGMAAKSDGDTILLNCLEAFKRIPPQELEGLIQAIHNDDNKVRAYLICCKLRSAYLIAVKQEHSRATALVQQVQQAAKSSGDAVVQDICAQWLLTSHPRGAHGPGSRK

[5] = target: T2, GST-FYVE-CENT C-terminus (amino acid residues 2120-2539) (human) (UniProt Q68DK2); test: as above
T2 sequence: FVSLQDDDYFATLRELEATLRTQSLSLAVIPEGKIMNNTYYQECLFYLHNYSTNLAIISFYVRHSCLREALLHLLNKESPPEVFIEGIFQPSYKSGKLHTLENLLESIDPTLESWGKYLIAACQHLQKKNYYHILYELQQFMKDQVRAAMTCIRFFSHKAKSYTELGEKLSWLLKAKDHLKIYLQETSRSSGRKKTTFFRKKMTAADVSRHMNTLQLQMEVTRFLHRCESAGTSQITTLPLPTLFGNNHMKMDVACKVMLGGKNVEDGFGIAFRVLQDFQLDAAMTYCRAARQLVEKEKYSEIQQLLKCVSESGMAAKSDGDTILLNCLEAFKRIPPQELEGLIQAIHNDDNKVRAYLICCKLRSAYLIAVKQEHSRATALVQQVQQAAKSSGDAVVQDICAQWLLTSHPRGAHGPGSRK

[6] = target: T3, GST-FYVE-CENT C-terminus (1807-2539) (human) (UniProt Q68DK2); test: as above
T3 sequence: T1 sequence with Q139R

[7] = target: T1, GST-FYVE-CENT C-terminus (1807-2539) mutant R1945Q (human); test: as above; remark: listed apart in the source
[8] = target: T3, GST-FYVE-CENT C-terminus (1807-2539) (human); test: as above; remark: listed apart in the source

- binding [1]: binds
- binding [2]: no binding
- binding [3]: binds
Molecule: endogenous Beclin 1 (from UniProt Q14457 1-450)

- binding [4]: no binding
- binding [5]: binds
- binding [6]: binds
Molecule: myc-Beclin 1 (from UniProt Q14457 1-450)

- binding [4]: binds
- binding [6]: binds
Molecule: myc-epitope-tagged mouse KIF13A (from UniProt Q9EQW7 1-1749)

- binding [7]: binds
- binding [8]: binds
B1: myc-TTC19 (protein, UniProt Q6DKK2 71-380)
chain: AAEEEEQQGADGAAAEDGADEAEAEIIQLLKRAKLSIMKDEPEEAELILHDALRLAYQTDNKKAITYTYDLMANLAFIRGQLENAEQLFKATMSYLLGGGMKQEDNAIIEISLKLASIYAAQNRQEFAVAGYEFCISTLEEKIEREKELAEDIMSVEEKANTHLLLGMCLDACARYLLFSKQPSQAQRMYEKALQISEEIQGERHPQTIVLMSDLATTLDAQGRFDEAYIYMQRASDLARQINHPELHMVLSNLAAVLMHRERYTQAKEIYQEALKQAKLKKDEISVQHIREELAELSKKSRPLTNSVKL
